The list shows a part of the results. Many values rest on one well or one pass, so single values are uncertain.

Test systems include HCC-1143; HCC-1187; MDA-468; SUM-149.
Common to all, as to assay: cell viability relative to vehicle (% of vehicle); basal-like triple-negative breast cancer lines; higher = less cytotoxic
What all share (conditions): 10 µM; 72 h
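Also: stably firefly luciferase-GFP labeled cells in 96-well plates, viability read as luciferase photon flux after d-luciferin addition, treated wells normalized to vehicle wells, single-dose high-throughput screen.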

For the compound `CC(=O)N1CCN(c2ccc(OCC3COC(Cn4ccnc4)(c4ccc(Cl)cc4Cl)O3)cc2)CC1` (single isomer, unassigned; (+)) [(+)-Ketoconazole], the cell viability in the test with HCC-1143 is 121; in the test with HCC-1187, 71.9; with MDA-468, 124; in the test on SUM-149, 129.

For the compound `Nc1nc(F)nc2c1ncn2C1OC(COP(=O)(O)O)C(O)C1O` (stereo not given) [Fludarabine Phosphate (Fludara)], the cell viability came to 74.8 in the test with HCC-1143, 118 in the test with HCC-1187, 113 with MDA-468 and 150 in the test on SUM-149.

On to `O=C1c2ccccc2C(=O)C1c1ccccc1` [Phenindione], for which the cell viability in the test with HCC-1143 was determined as 104; in the test with HCC-1187 it was 96.1; in the test with MDA-468, 120; in the test with SUM-149, 105.

Turning to `Cl.NC12CC3CC(CC(C3)C1)C2` [Amantadine HCl], the cell viability stood at 90.9 with HCC-1143, 109 in the test with HCC-1187, 105 with MDA-468 and 111 with SUM-149.

Take `Nc1c(CC(=O)[O-])cccc1C(=O)c1ccc(Br)cc1.[Na+]` [Bromfenac Sodium]: the cell viability in the test on HCC-1143 was found to be 85.7; with HCC-1187, 109; in the test with MDA-468, 107; in the test on SUM-149, 91.6.

With `NCCC(O)(P(=O)(O)O)P(=O)(O)O` [Pamidronate], the cell viability stood at 92.1 in the test on HCC-1143, 99.9 in the test on HCC-1187, 118 with MDA-468 and 88.4 in the test with SUM-149.

On to `CCCCC1=NC2(CCCC2)C(=O)N1Cc1ccc(-c2ccccc2-c2nn[nH]n2)cc1` [Irbesartan], for which the cell viability in the test with HCC-1143 stood at 85.2; with HCC-1187, 125; in the test with MDA-468, 90.4; with SUM-149 it was 125.

With `Cc1cccc(C)c1OCC(C)N.Cl` (stereo not given) [Mexiletine HCl], the cell viability with HCC-1143 is 81; in the test with HCC-1187, 101; with MDA-468, 120; in the test on SUM-149 it was 89.1.

Take `O=c1c(O)c(-c2ccc(O)c(O)c2)oc2cc(O)cc(O)c12` [Quercetin]: the cell viability with HCC-1143 stood at 169; with HCC-1187 it was 106; in the test on MDA-468 it was 129; with SUM-149 it was 155.

As for `OC(Cn1cncn1)(Cn1cncn1)c1ccc(F)cc1F` [Fluconazole], the cell viability turned out to be 82 in the test with HCC-1143, 94.1 in the test on HCC-1187, 100 with MDA-468 and 115 in the test on SUM-149.
